Test results: PubChem BioAssay (NCATS)
Several values for one entry are separate records, joined by “and”; a condition that tells them apart may be missing. Identical values can stand only once. This list was built around the results that the source calls inconclusive (neither active nor inactive); the mix of calls is not that of the screen. For part of these data: Potencies of inconclusive entries are doubtful fits and often do not repeat. Activity calls are given as the source filed them. Unless noted, calls follow the shape of the dose curve; as a rule, active = well fitted curve in the direction sought with a large enough effect; inconclusive = small, poorly fitted or top-dose-only effect, or another doubt; inactive = no such curve, though single readings can be large; an effect the other way counts as inactive or inconclusive.

Experiments:
[1] = Primary qHTS for small molecule stabilizers of the endoplasmic reticulum resident proteome: Secreted ER Calcium Modulated Protein (SERCaMP) assay (AID 1508630); settings: SH-SY5Y GLuc-SERCaMP (Gaussia luciferase released on ER calcium loss) secretion, thapsigargin, luminescence; series mostly up to 38.4 µM
In short: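 The SH-SY5Y reporter protocol was run at 3 concentrations up to 38.3 uM (primary) or 11 concentrations (follow-up): 16 h compound, 100 nM thapsigargin for 4 h, then extracellular luciferase luminescence.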

[2] = Confirmatory qHTS for small molecule stabilizers of the endoplasmic reticulum resident proteome: Secreted ER Calcium Modulated Protein (SERCaMP) assay (AID 1508628); also: nearly all actives have a fitted effect of over 40% in size
In short: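 Reporter secretion upon ER calcium depletion (100 nM thapsigargin, 4 h, 37C) is measured as medium luminescence with coelenterazine, after 16 h compound pretreatment of SH-SY5Y-GLuc-SERCaMP cells; primary at three concentrations up to 38.3 uM, follow-up at 11 (up to 76.6 uM).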

[3] = Cell Viability qHTS for small molecule stabilizers of the endoplasmic reticulum resident proteome (AID 1508629); settings: cell viability counter-screen, 100 nM thapsigargin for final 4 h;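 also: compound exposure about 46 h in total before the viability read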
[4] = Cytotoxicity counterscreen for inhibitors of SARS-CoV-2 cell entry (AID 1645845; calls by dose curve; also: nearly all actives have a fitted effect of over 50% in size); settings: activity change, negative = cytotoxicity: at 57.1 µM (top of the series) unless noted
In short: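 ATP-content luminescence (ATPLite 1step, 15 min RT) read after 48 h compound exposure of Expi293F cells stably expressing human ACE2; normalized to cells-only wells and media-only wells.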

[5] = A High-Content qHTS Against Drug Library for the Identification of Small Molecules that Inhibit DYT1 Early Onset Primary Dystonia-Associated Cell Pathology (AID 1645839; calls by dose curve)
In short: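 High-content imaging quantified EGFP-TorsinA mislocalization in HEK293-derived cells inducibly expressing DYT1 mutant torsinA, after 48 h exposure to compound given together with tetracycline induction. Cell count served as a toxicity channel alongside %pathology.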

[6] = target: Cytochrome P450 2C9 (Homo sapiens) (UniProt P11712); assay: Cytochrome P450 family 2 subfamily C member 9 (CYP2C9) small molecule antagonists: luciferase biochemical (cell-free) qHTS assay (AID 1645842; active = well fitted curve in the direction sought with a large enough effect in the repeat runs; inconclusive = weak or mixed curves; inactive = no such curve, though single readings can be large; an effect the other way counts as inactive or inconclusive; also: nearly all actives have a fitted effect of over 55% in size)
UniProt P11712, sequence (P11712 whole entry, looked up): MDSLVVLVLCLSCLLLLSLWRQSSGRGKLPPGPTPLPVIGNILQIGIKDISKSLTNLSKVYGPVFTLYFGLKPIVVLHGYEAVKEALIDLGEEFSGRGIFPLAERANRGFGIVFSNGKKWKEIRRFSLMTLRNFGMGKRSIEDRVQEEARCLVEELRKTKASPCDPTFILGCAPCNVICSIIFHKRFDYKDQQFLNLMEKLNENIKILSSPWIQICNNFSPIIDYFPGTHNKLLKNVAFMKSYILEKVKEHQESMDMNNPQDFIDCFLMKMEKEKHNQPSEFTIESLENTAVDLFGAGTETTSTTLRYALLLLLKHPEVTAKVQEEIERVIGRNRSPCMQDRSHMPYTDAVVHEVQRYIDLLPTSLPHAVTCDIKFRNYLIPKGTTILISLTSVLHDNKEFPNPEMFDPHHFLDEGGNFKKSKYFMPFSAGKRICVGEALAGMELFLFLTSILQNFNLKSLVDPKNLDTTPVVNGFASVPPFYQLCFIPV
In short: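 P450-Glo CYP2C9 system: proluciferin substrate with enzyme in mix containing 0.4% BSA, 10 min at room temperature, then NADPH regeneration solution added and incubated 1 h at 37C. Detection reagent stopped reaction; luminescence read after 20 min as RLU.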

[7] = target: Cytochrome P450 2D6 (Homo sapiens) (UniProt P10635); assay: Cytochrome P450 family 2 subfamily D member 6 (CYP2D6) small molecule antagonists: luciferase biochemical (cell-free) qHTS assay (AID 1645840; active = well fitted curve in the direction sought with a large enough effect in the repeat runs; inconclusive = weak or mixed curves; inactive = no such curve, though single readings can be large; an effect the other way counts as inactive or inconclusive; also: nearly all actives have a fitted effect of over 55% in size)
UniProt P10635, sequence (P10635 whole entry, looked up): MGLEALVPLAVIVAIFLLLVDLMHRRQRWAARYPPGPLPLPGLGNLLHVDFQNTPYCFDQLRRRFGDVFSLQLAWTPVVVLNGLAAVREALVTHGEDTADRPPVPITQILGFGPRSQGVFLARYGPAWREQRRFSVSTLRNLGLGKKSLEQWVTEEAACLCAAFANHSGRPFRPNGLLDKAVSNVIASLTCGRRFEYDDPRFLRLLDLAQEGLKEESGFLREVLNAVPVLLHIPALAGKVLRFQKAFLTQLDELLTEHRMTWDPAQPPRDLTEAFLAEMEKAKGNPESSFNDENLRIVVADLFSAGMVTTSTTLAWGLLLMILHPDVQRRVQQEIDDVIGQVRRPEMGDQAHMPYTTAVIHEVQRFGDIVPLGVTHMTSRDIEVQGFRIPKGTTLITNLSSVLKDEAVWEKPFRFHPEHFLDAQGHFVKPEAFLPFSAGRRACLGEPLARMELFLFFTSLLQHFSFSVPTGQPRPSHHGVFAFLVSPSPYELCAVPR
In short: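 P450-Glo CYP2D6 system: proluciferin substrate converted by enzyme to luciferin, read by luminescence proportional to activity. Enzyme-substrate mix with compound 10 min at room temperature, then NADPH regeneration 1 h before detection reagent.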
Potency is read from the fitted curve at half-maximal effect; tags tell the direction and shape of the fitted curve.

CCOP(=S)(OCC)Oc1cc(C)nc(C(C)C)n1
Potency [1]: inconclusive: 2.24 µM [inhibitor, full curve, poor fit]

CCOCCOC(C)=O
Potency [1]: inconclusive: 11.2 µM [inhibitor, full curve]

C/C=C(/C)C(=O)O[C@H]1C(C)=C2[C@H]([C@@H]1OC(=O)CCCCCCC)[C@@](C)(OC(C)=O)C[C@H](OC(=O)CCC)[C@@]1(O)[C@H]2OC(=O)[C@@]1(C)O
Potency [2]: inactive and inconclusive: 39.8 µM [inhibitor, single point]
Potency [3]: active: 251 nM and active: 224 nM
Potency [1]: inactive
Potency [4]: inconclusive: 14.1 µM [cytotoxic, partial curve, poor fit]

c1ccc2c(c1)Sc1ccccc1N2CC1CN2CCC1CC2 (stereo not given)
Potency [1]: inactive
Potency [5]: inconclusive: 35.5 µM [inhibitor, single point]
Potency [4]: inconclusive: 22.4 µM [cytotoxic, single point]

O=C1OC(CCN2CCCCC2)OC1(c1ccccc1)c1ccccc1 (stereo not given)
Potency [1]: inactive
Potency [5]: inconclusive: 3.55 µM [inhibitor, single point]
Potency [6]: inconclusive: 17.4 µM [inhibitor, partial curve]

CCCN(CCC)C(=O)Cc1c(-c2ccc(Cl)cc2)nc2ccc(Cl)cn12
Potency [1]: inconclusive: 31.6 µM [inhibitor, single point]
Potency [5]: inconclusive: 10 µM [inhibitor, partial curve, poor fit]
Potency [7]: inconclusive: 13.8 µM [inhibitor, partial curve]

ClC1=C(Cl)[C@]2(Cl)[C@@H]3[C@@H]4C[C@@H]([C@H]5O[C@@H]45)[C@@H]3[C@@]1(Cl)C2(Cl)Cl
Potency [1]: inactive
Potency [5]: inconclusive: 35.5 µM [inhibitor, single point]
Potency [6]: inconclusive: 14.2 µM [inhibitor]

CCOC(=O)C1(c2ccccc2)CCN(CCc2ccc(N)cc2)CC1
Potency [1]: inconclusive: 31.6 µM [inhibitor, single point]
Potency [5]: inconclusive: 11.2 µM [inhibitor, partial curve, poor fit]
Potency [6]: inconclusive: 27.5 µM [inhibitor, single point]

Clc1ccc(C(c2ccc(Cl)cc2)C(Cl)(Cl)Cl)cc1
Potency [1]: inconclusive: 5.62 µM [inhibitor, full curve]
Potency [5]: inconclusive: 35.5 µM [inhibitor, single point]
Potency [7]: inactive

CCC1(c2cccc(O)c2)CCCCN(C)C1 (stereo not given)
Potency [1]: inconclusive: 31.6 µM [inhibitor, single point]
Potency [5]: inconclusive: 35.5 µM [inhibitor, single point]
Potency [7]: active: 13.8 µM

CC(C)(C)CC(C)(C)c1ccc(O)cc1
Potency [1]: inconclusive: 56.2 µM [inhibitor, partial curve, poor fit]
Potency [5]: inconclusive: 56.2 µM [inhibitor, single point]
Potency [7]: active: 36.6 µM and inconclusive: 34.7 µM [inhibitor, single point]
Potency [4]: inconclusive: 39.8 µM [cytotoxic, single point]

Nc1ccc(Cl)cc1C(=O)c1ccccc1F
Potency [1]: inconclusive: 22.4 µM [inhibitor, partial curve, poor fit]
Potency [5]: inconclusive: 22.4 µM [inhibitor, partial curve, poor fit]
Potency [7]: inconclusive: 15.5 µM [inhibitor, partial curve]
Potency [6]: inconclusive: 15.5 µM [inhibitor, partial curve]

CO[C@]12CC[C@@]3(C[C@@H]1[C@](C)(O)C(C)(C)C)[C@@H]1Cc4ccc(O)c5c4[C@@]3(CCN1CC1CC1)[C@H]2O5
Potency [1]: inconclusive: 50.1 µM [inhibitor, single point]
Potency [5]: inconclusive: 35.5 µM [inhibitor, single point]
Potency [6]: inconclusive: 44.5 µM [inhibitor, single point]

N[C@@H]1C[C@H]1c1ccccc1
Potency [1]: inactive
Potency [5]: inactive
Potency [7]: inconclusive: 30.9 µM [inhibitor, single point]

Cc1ccc(-c2nc3ccc(C)cn3c2CC(=O)N(C)C)cc1
Potency [1]: inactive
Potency [7]: inconclusive: 19.5 µM [inhibitor, partial curve]

C=CCC1(C(C)CC)C(=O)NC(=O)NC1=O (stereo not given)
Potency [1]: inconclusive: 31.6 µM [inhibitor, partial curve, poor fit]
Potency [7]: inconclusive: 12.3 µM [inhibitor, partial curve]
